Assay results published in the supplement of paper PMC7826260.
Some of the results follow. One pool of 16,384 single-stranded DNAs met each Rep nickase domain in vitro (3 µM enzyme, 1 h, 37 °C); shown is the middle of each 90-letter strand. Numbers give uncut DNA relative to the enzyme-free pool, as log2; more negative means more cut, near 0 not cut, and no call is made. The scaling is to total reads; values above 0 arise when much of the pool is cut.

Legend:
Assay in all cases: uncleaved DNA left, log2 of reads against the no-enzyme library (log2 ratio); higher = less cleavage (more negative = more Rep cleavage of the k-mer); sequences stand for … in CTCGTCCG…ACCGGAGA
[1] = tested on: T1, Rep nickase domain of Muscovy duck circovirus
T1 sequence (Rep 1-111, printed without the tag): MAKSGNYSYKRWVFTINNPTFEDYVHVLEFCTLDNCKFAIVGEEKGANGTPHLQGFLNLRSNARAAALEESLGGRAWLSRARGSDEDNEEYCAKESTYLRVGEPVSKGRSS
Method: (§1)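 A pool of 90-nt single-stranded DNAs with seven random bases just before the constant AC of the nick site (name = the seven bases) was cut by 3 µM recombinant His6-SUMO-tagged Rep nickase domain (300 nM DNA, 50 mM HEPES pH 8.0, 50 mM NaCl, 1 mM MnCl2, 1 h, 37 °C, three replicates). Uncut DNA was amplified and sequenced.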

[2] = tested on: T2, Rep nickase domain of banana bunchy top virus
T2 sequence (Rep 1-94, printed without the tag): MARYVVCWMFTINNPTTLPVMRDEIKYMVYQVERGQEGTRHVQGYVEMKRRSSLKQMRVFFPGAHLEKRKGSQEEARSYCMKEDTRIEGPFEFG
Method: as §1

[3] = tested on: T3, Rep nickase domain of cabbage leaf curl virus
T3 sequence (Rep 1-116, printed without the tag): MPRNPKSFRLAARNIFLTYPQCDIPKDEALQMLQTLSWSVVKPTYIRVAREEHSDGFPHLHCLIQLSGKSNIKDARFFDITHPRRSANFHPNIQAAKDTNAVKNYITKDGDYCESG
Method: as §1

[4] = tested on: T4, Rep nickase domain of chickpea chlorotic dwarf virus
T4 sequence (Rep 1-124, printed without the tag): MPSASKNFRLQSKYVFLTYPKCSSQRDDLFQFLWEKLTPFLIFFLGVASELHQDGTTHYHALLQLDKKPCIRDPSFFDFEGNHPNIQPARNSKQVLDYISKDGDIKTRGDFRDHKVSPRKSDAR
Method: as §1

[5] = tested on: T5, Rep nickase domain of faba bean necrotic yellows virus
T5 sequence (Rep 1-98, printed without the tag): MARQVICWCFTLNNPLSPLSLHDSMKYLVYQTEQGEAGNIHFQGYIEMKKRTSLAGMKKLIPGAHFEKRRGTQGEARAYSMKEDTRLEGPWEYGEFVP
Method: as §1

[6] = tested on: T6, Rep nickase domain of maize striate mosaic virus
T6 sequence (Rep 1-117, printed without the tag): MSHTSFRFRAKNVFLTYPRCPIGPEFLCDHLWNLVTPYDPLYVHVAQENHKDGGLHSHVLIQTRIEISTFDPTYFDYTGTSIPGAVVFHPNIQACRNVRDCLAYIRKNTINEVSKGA
Method: as §1

[7] = tested on: T7, Rep nickase domain of porcine circovirus 2
T7 sequence (Rep 2-116, printed without the tag): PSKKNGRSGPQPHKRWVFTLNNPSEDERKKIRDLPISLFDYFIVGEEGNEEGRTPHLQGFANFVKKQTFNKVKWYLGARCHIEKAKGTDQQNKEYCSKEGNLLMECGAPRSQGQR
Method: as §1

[8] = tested on: T8, Rep nickase domain of tomato golden mosaic virus
T8 sequence (Rep 1-124, printed without the tag): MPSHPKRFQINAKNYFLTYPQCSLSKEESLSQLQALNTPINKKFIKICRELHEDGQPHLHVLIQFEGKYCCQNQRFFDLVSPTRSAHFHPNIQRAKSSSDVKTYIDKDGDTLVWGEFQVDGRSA
Method: as §1

[9] = tested on: T9, Rep nickase domain of tomato yellow leaf curl virus
T9 sequence (Rep 1-136, printed without the tag): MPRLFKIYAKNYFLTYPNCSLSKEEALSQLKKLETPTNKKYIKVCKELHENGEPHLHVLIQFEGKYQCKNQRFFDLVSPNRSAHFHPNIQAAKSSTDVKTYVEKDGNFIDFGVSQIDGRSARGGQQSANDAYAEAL
Method: as §1

[10] = tested on: T10, Rep nickase domain of wheat dwarf virus
T10 sequence (Rep 1-137, printed without the tag): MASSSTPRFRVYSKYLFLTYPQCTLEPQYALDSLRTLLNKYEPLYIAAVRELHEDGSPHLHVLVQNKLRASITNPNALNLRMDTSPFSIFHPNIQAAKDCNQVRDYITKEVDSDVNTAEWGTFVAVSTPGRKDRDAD
Method: as §1

Sequence | uncleaved DNA left (log2) [1] | uncleaved DNA left (log2) [2] | uncleaved DNA left (log2) [3] | uncleaved DNA left (log2) [4] | uncleaved DNA left (log2) [5] | uncleaved DNA left (log2) [6] | uncleaved DNA left (log2) [7] | uncleaved DNA left (log2) [8] | uncleaved DNA left (log2) [9] | uncleaved DNA left (log2) [10]
GTAAGAC | 0.0966 | 0.0911 | -0.145 | -0.784 | -0.0367 | 1.5 | 0.157 | 0.0141 | 0.13 | 0.0722
GGATGGT | -0.0558 | 0.161 | 0.615 | 1.14 | 0.0369 | 1.85 | -0.334 | 0.0478 | 0.0182 | 0.168
GCAATAC | -0.0821 | 0.0839 | 0.0373 | 0.0567 | 0.0436 | -0.212 | 0.168 | 0.0498 | -0.000197 | -0.023
CTGTGCT | -0.761 | -0.194 | -0.572 | -1.14 | -0.0778 | -1.1 | -2.84 | -0.0226 | 0.13 | -0.113
CGAGCAT | 0.189 | 0.201 | 0.0398 | 0.335 | 0.116 | 0.529 | -0.169 | 0.118 | -0.00632 | 0.195
CTTGATC | -0.0544 | 0.0772 | -0.0479 | -0.0602 | -0.015 | -0.898 | -0.0382 | -0.057 | -0.033 | 0.0685
TCGCACA | -0.0504 | 0.078 | -0.00505 | -0.798 | -0.166 | -0.402 | -0.128 | 0.0801 | -0.00687 | 0.0387
GTTAGCA | -0.0636 | 0.065 | 0.311 | 0.828 | 0.0127 | 1.53 | 0.0974 | 0.0296 | 0.0565 | 0.0503
TGACAGG | 0.0478 | 0.0183 | 0.246 | 0.825 | -0.0919 | 0.832 | 0.0216 | -0.0729 | 0.0399 | 0.0202
ACTGTTT | -0.0726 | -0.0843 | -0.213 | -1.22 | 0.0523 | 0.0438 | -0.499 | -0.00773 | -0.114 | -0.14
TGCGCTG | 0.00768 | 0.00813 | 0.05 | 0.551 | -0.0769 | 1.65 | 0.1 | 0.0278 | -0.0784 | -0.0611
GCATCCA | -0.0191 | -0.00729 | 0.0787 | -0.194 | -0.0151 | 0.125 | 0.0768 | -0.00517 | 0.00985 | 0.0517
GTGGGAC | 0.099 | 0.11 | 0.616 | 1.37 | -0.092 | 2.15 | 0.125 | 0.166 | 0.112 | 0.121
TTCTCGA | -0.00991 | 0.00408 | 0.0283 | -0.35 | 0.0091 | -0.655 | 0.0538 | -0.0645 | -0.0375 | 0.00514
TCATATG | -0.0711 | -0.0975 | -0.566 | -0.744 | 0.0199 | -1.2 | 0.133 | -0.0604 | -0.132 | -0.0486
AGTATAG | 0.0802 | 0.0435 | -0.704 | -0.475 | 0.0545 | -1.2 | 0.178 | 0.0611 | 0.0853 | -0.0343
GCTTAAA | 0.000855 | 0.11 | 0.0543 | 0.582 | -0.0301 | 0.498 | 0.175 | 0.107 | 0.0462 | 0.0756
ACATCTA | -0.026 | 0.00793 | -0.224 | -1.35 | -0.053 | -0.754 | -0.0105 | 0.00858 | -0.0523 | -0.0223
CGCGCCA | -0.0679 | -0.0937 | -0.0789 | -0.0978 | -0.0834 | 0.103 | -0.0738 | -0.0279 | -0.0975 | -0.127
CCATCCA | -0.00738 | -0.0101 | -0.0312 | -1.11 | 0.0502 | -0.605 | 0.0554 | 0.0709 | 0.103 | 0.0649
GCTTTAC | -0.0398 | -0.0111 | -0.0386 | -0.463 | 0.019 | 0.196 | -0.00928 | -0.0375 | 0.0309 | -0.000276
ACCGTTT | -0.25 | -0.134 | -0.347 | -1.83 | -0.0925 | -0.661 | -0.0865 | -0.0717 | -0.235 | -0.22
TTAAAAT | 0.0609 | 0.0653 | 0.159 | -1.19 | 0.0177 | -0.0974 | -0.16 | 0.0725 | -0.0112 | 0.0114
GAATCGA | 0.178 | 0.0507 | 0.00563 | -0.189 | 0.148 | -0.576 | 0.134 | 0.0676 | 0.0483 | 0.097
TATCCTC | 0.00473 | -0.0605 | 0.016 | -0.3 | -0.0457 | -0.167 | -0.122 | -0.116 | -0.0251 | 0.0257
AAAACCG | -0.0567 | -0.000248 | -0.787 | -0.299 | 0.0613 | -1.07 | 0.106 | -0.0345 | -0.0211 | -0.038
CGATTTG | 0.0388 | 0.0878 | -0.0199 | 0.577 | 0.0626 | 0.882 | 0.19 | 0.0215 | 0.058 | 0.136
GGTCTTC | 0.0542 | 0.124 | 0.437 | 1.1 | -0.0647 | 1.76 | 0.0051 | -0.0287 | 0.122 | 0.122
ATTACGT | -0.0802 | 0.0247 | 0.107 | -0.749 | 0.113 | -0.42 | -1.78 | 0.0293 | 0.103 | -0.0313
CCCCAAC | -0.251 | -0.156 | -0.275 | -1.62 | -0.23 | -0.921 | -0.25 | -0.176 | -0.351 | -0.232
